# Assay results reported in PubChem BioAssay AID485344 (National Center for Advancing Translational Sciences (NCATS), 2010).
# The whole screen tested about 340,000 compounds, of which about 6,900 (2%) were called active. Rule as the data show it: active = inhibition above about 30%; inactive = below that, where a call was filed. The entries are a selection whose mix differs from that of the whole data set. The source gives no active or inactive call for entries shown without one.
# Target: D(2) dopamine receptor (Homo sapiens) (UniProt P14416)
# Chain of UniProt P14416 (P14416 whole entry, looked up): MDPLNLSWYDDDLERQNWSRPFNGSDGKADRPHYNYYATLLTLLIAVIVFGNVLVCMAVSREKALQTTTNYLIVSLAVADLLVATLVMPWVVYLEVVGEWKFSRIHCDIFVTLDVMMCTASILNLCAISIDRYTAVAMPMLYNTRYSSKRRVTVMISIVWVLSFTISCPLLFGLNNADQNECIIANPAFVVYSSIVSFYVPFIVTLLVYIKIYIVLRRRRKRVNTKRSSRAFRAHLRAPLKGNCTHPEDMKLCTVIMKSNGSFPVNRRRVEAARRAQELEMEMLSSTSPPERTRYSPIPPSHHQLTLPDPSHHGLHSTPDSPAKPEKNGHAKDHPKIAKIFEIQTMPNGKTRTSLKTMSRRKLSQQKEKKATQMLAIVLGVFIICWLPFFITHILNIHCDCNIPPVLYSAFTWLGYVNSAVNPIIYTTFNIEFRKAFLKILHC
# Experiment: HTS Assay for Allosteric Antagonists of the Human D2 Dopamine Receptor: Primary Screen for Antagonists; also: 0% is about no effect
# Details: HEK293 TREx D2 cells, calcium flux, dopamine EC80; at 10 µM; stronger effect = higher value
# In short: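 HEK293 T-REx D2 cells, tet-induced, calcium dye no-wash. Cpd pintool add, 180 s kinetic, then EC80 DA, 180 s kinetic. Ca flux read.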
row,Compound,inhibition
1,COc1ccc(OC)c(NC(=O)c2ccc3c(SCC(=O)O)c4c(nc3c2)CCCC4)c1,-3.59%
2,N#Cc1ccccc1NC(=O)C(=O)NCCc1csc(-c2ccc(C(F)(F)F)cc2)n1,17.9%
3,Cc1ccc(Nc2nnc(SCC(=O)NC3CCS(=O)(=O)C3)s2)c(C)c1 (stereo not given),active: 38.8%
4,O=C1CSC2(C(=O)N(Cc3ccccc3)c3ccccc32)N1c1cccc(F)c1 (stereo not given),-3.17%
5,COc1cccc(NC(=O)CN(C)C(=O)CC(NC(=O)c2ccccc2Cl)c2ccccc2)c1 (stereo not given),active: 31.6%
6,CCc1ccc(NC(=O)COC(=O)CCCC2=NS(=O)(=O)c3ccccc3N2)cc1,-11.9%
7,CCOc1ccc(CCNC(=O)C2CCN(Cc3nc(-c4ccc(OC)c(OC)c4)oc3C)CC2)cc1OCC,20.2%
8,COc1ccc(-n2c(/C=C/c3cccc(C(F)(F)F)c3)nc3ccccc3c2=O)cc1Cl,5.69%
9,CCOc1ccccc1NC(=O)C1CCN(S(=O)(=O)c2ccc3[nH]c(=O)ccc3c2)CC1,-4.47%
10,COc1cc(-c2nc(-c3ccc4c(c3)[nH]c(=O)n4C)no2)cc(OC)c1OC,24.9%
11,CC(C(=O)Nc1cccc(S(=O)(=O)N2CCOCC2)c1)N1CCN(C/C=C/c2ccccc2)CC1 (stereo not given),active: 79.9%
12,Cc1ccn2c(=O)cc(COc3ccc(NC(=O)COc4ccccc4)cc3)nc2c1,7.12%
13,Cc1ccc(S(=O)(=O)N2CCN(Cc3cc(Br)ccc3O)CC2)cc1,-0.256%
14,CCC(=O)N1CCc2cc(Br)cc(S(=O)(=O)N3CCCC(C(=O)NCc4ccc(F)cc4)C3)c21 (stereo not given),10.1%
15,Cn1cc(S(=O)(=O)N2CCCCCC2)cc1C(=O)N1CCN(c2cccc(C(F)(F)F)c2)CC1,-23.6%
16,COc1cc(CN2CCN(c3ncccn3)CC2)cc(OC)c1,active: 86.7%
17,Cc1cccc(C(=O)Nc2nc3nc(-c4ccccc4)cc(=O)n3[nH]2)c1,-2.73%
18,CCSc1ncc(Cl)c(C(=O)Nc2ccc(S(=O)(=O)Nc3ncccn3)cc2)n1,4.42%
19,COc1cccc(CNC(=O)CCCn2ncn3c(cc4occc43)c2=O)c1OC,-10.1%
20,Cn1c(=O)n(C)c2cc(N3CCOCC3)c(NC(=O)c3ccc(Cl)cc3)cc21,-3.52%
21,O=C(NCc1ccc2c(c1)CCN2C(=O)c1ccncc1)c1ccccc1Cl,17.1%
22,Cn1c(=O)c2c(nc(CN3CCN(c4ccccc4F)CC3)n2Cc2ccccc2F)n(C)c1=O,6.8%
23,COc1ccc(OC)c(CCNC(=O)c2cc3cccc4c3n2CC(C)S4)c1 (stereo not given),8.45%
24,Cn1c2ccccc2c2c(C(=O)N3CCN(c4cccc(Cl)c4)CC3)cn(C3CCCCC3)c(=O)c21,-2.19%
25,COc1ccccc1CCNC(=O)C(=O)NCC(c1ccco1)S(=O)(=O)c1ccc(F)cc1 (stereo not given),-20%
